From article PMC12136788
This is one part of the list.

T1: UNK ZnF1-3 (human, UniProt Q9C0B0 31-174)
T1 sequence: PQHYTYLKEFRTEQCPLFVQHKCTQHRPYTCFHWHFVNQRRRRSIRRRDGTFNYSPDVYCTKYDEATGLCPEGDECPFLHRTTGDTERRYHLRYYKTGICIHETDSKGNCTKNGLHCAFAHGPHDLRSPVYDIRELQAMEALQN

B1: 32701355_32702498_6989_CDS_ENSG00000115760_ENST00000421745|human|control|control (ssRNA)
RNA: GGGAGUUCUACAGUCCGACGAUCUGUGUCUAAAUUAGAACGGGACCAUUCUGCUGUCCGACGUAAACGAAUUAAAUCCUUAAAGUGCUUUGAAGUGGCCUGCUUUAGUUUUGCUUGUUCUACCAGGAGUUUAUAUGAUGAUCCCAACAGAGGAUUGAGCAUCA
B2: chr2:202488911:202488912:-_ENSG00000155755_ENST00000286196|hu_mus|hu_hu_hu_mus_False|48_68 (ssRNA)
RNA: GGGAGUUCUACAGUCCGACGAUCAUUGAAACAUUUUUCAUAAUCUCCAGUAGCAUUUCAGCAUUAUUAAUCAAAAACUCAAUUGUAAAUACACAUGUCUUAUAAAAAUACACUUAAAAACACGAGUGGGGAGCGCAGGCGCCACAACAGAGGAUUGAGCAUCA
B3: chr11:57381840:57381841:+_ENSG00000149131_ENST00000378324|hu_hu|FALSE|FALSE (ssRNA)
RNA: GGGAGUUCUACAGUCCGACGAUCCAGUUCCAGCACUGUCUGGUGCUGCAUCGCAGAAACCUGAAGAUCUGGGUCCUCUGUCAGCCCACACAGGUUAAGGUCAUAAGAAAAAUCGAAGAAUUCCAAUUUCUCCAUGAUUGAGAGCAACAGAGGAUUGAGCAUCA
B4: chr10:33190432:33190433:-_ENSG00000150093_ENST00000302278|hu_mus|hu_hu_hu_mus_True|58_88 (ssRNA)
RNA: GGGAGUUCUACAGUCCGACGAUCUACAUUUUCCAAACCUGCAUGUGAGUAAAACCAUGGCCACAGAGCCCCAAAACUACCUAACUGUGACUAAGAUGCUGCUGCUGUGAGCUUGGUGUUGCAAAAUCCGCCUGAGUAGGAUUCCAACAGAGGAUUGAGCAUCA
B5: chr3:10015032:10015033:+_ENSMUSG00000027533_ENSMUST00000029046|mus_mus|FALSE|FALSE (ssRNA)
RNA: GGGAGUUCUACAGUCCGACGAUCGUUGUUGCCAUCACACGUAAUGAUACAGUCUGGCUUGGCCAUGGCAGCCAUCUUCCUAAGAGCCAGUCCUACUCCUAGCUCUUUCAUGUACUCCUCAAAGCCGUGGCUUUCCAUCAGGCGCAACAGAGGAUUGAGCAUCA
B6: chr17:60770872:60770873:+_ENSG00000011028_ENST00000303375|hu_hu|hu_hu_hu_mus_True|38_38 (ssRNA)
RNA: GGGAGUUCUACAGUCCGACGAUCUCUUUAAAAAAAAAAAAAAAAAGACAAACAAUAAUAGCACAUUUCGAGAAUCAAGAACUACAAUAGAGGGUCCAUGUCUUCGAUUUGUUCACAUCGUCCUGCACUGGGACACGGGGACUGCAACAGAGGAUUGAGCAUCA
B7: chr11:95591783:95591784:-_ENSG00000087053_ENST00000352297|hu_hu|FALSE|FALSE (ssRNA)
RNA: GGGAGUUCUACAGUCCGACGAUCCUCAAAUAUGGAUCUUCUUGUCCGCCCCUCAGGUUUAUGAGCAAAUCGUAAAUUCCUAAUAUCCUUACACACAGUUUCUAGUCCAUAAGAAUUUUCACCUCGACUAGAAGCACCACCAAUCAACAGAGGAUUGAGCAUCA
B8: chr16:13687521:13687522:+_ENSMUSG00000022684_ENSMUST00000023365|mus_hu|FALSE|FALSE (ssRNA)
RNA: GGGAGUUCUACAGUCCGACGAUCGGCUGCAAGACUUUGGACUAUGUCAUUAUUCUGCUGAAUGUCUUCAAAUCUCAGUCUAAUGGCAUCAGGAAAUAACUUUUCAAUGGCAUCCCUGAGGAGAAUACUGACUUUGGGGAAACCCAACAGAGGAUUGAGCAUCA
B9: chr5:4806447:4806448:-_ENSMUSG00000028926_ENSMUST00000030763|mus_hu|FALSE|FALSE (ssRNA)
RNA: GGGAGUUCUACAGUCCGACGAUCAGCAUAAAAACCUUUACAGAGACGCUGUGCUGCAGAGGGAAAUCAAACAAAAUCAAACACAAAAGACUGAAAAGAAUACAUGCCAUGUAUCAGUAAGCAAAGCUUAAUCUUCACGUAGUUCAACAGAGGAUUGAGCAUCA
B10: 25244040_25248577_2582_CDS_ENSMUSG00000034295_ENSMUST00000037097|mouse|control|control (ssRNA)
RNA: GGGAGUUCUACAGUCCGACGAUCACACUGUCCAUUCACACCCACAUCCUGAAGGCUGGUGGACCACAAACCGGUCGCCCUGUCUUCAGACAGUUUGUCUUCCUUCUCUUCCCUCUCCAAGGUGCUGCUGGAGGACGAGAUGCUCAACAGAGGAUUGAGCAUCA
B11: 1005761_1005881_6397_CDS_ENSG00000060237_ENST00000535572|human|control|control (ssRNA)
RNA: GGGAGUUCUACAGUCCGACGAUCCAGCUCUAACUUUAAGUCUUCAUCUUCGAUAUCUGACUCAUUGUCGCUACUCAUGUAAGAGGAGUUAAAUGAAUUACUAAGGCUUUGACUUAGAUUCUGGCUAGGAAGGCUCUUUGAGCUCAACAGAGGAUUGAGCAUCA
B12: chr7:54823571:54823572:-_ENSG00000132432_ENST00000352861|hu_mus|hu_hu_hu_mus_False|58_98 (ssRNA)
RNA: GGGAGUUCUACAGUCCGACGAUCUCCCAUGAUAGCAAAUCCUAUUGCUGUAGCCAUGGCAAUCUUCUGGAAUUCUUUUCUAUCAGGUUUGGUGCAUCUUUUAACCAGCCGAAUUGAGUCCUUUACAAACUGCCGGCUGGGCUCCAACAGAGGAUUGAGCAUCA
B13: chr11:33163239:33163240:-_ENSG00000176102_ENST00000323959|hu_mus|motif|central (ssRNA)
RNA: GGGAGUUCUACAGUCCGACGAUCUCUGCCAGAACUGGGGAACUGGGCAACAAGGCGUUCGUAAGUCUUCCGUGCUUUGUCGGUAGGUUGAUUCUGUGCCUCUCGAAUGAGAAUGCUCCAAGCAUCAAGGUCAUAUGGAUUUUCCAACAGAGGAUUGAGCAUCA
B14: chr11:77376804:77376805:-_ENSG00000048649_ENST00000308488|hu_hu|FALSE|FALSE (ssRNA)
RNA: GGGAGUUCUACAGUCCGACGAUCAAUGAAUUUUAAUAGAAGUCUAAUGGCCAAAGGCCAAAACUACAUUCAAACUCUGCUAAUAUAUCCAGGCAGAUAGGAAAUUCCAACACACACACACACGCACACGCACACACACAAACACAACAGAGGAUUGAGCAUCA

Target: T1, UNK ZnF1-3
Test: nsRBNS (natural sequence RNA bind-n-seq); RBNS binding buffer (assumed for nsRBNS): 25 mM Tris pH 7.5, 150 mM KCl, 3 mM MgCl2, 0.01% Triton X-100, 500 ug/ml BSA, 20 U/ml SUPERase-In, 4 C; UNK is unkempt and MSI1 is Musashi-1; names of the RNAs are library labels; protein concentration not given here; high values mean tight binding

Row | Binder | binding signal [enrichment R]
1 | B1 | 1.38
2 | B2 | 1.57
3 | B3 | 0.765
4 | B4 | 1.15
5 | B5 | 0.459
6 | B6 | 1.9
7 | B7 | 1.05
8 | B8 | 0.931
9 | B9 | 1.97
10 | B10 | 0.892
11 | B11 | 0.79
12 | B12 | 0.765
13 | B13 | 0.662
14 | B14 | 1.93
